# pIC50: −log10 of the molar value.
# Target: T1, P. falciparum DXR (Plasmodium falciparum, UniProt O96693)
# T1 sequence (O96693 73-488): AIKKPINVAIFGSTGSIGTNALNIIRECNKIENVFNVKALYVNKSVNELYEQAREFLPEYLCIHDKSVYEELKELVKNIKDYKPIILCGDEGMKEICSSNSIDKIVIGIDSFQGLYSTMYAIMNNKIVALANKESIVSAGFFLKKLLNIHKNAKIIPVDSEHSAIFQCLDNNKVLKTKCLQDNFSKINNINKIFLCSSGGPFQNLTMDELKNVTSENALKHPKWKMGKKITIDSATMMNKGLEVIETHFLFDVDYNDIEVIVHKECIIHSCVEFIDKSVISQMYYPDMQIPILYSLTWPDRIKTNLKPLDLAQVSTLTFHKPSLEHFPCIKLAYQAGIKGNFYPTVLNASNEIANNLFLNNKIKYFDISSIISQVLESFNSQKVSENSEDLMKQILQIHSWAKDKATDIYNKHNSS
# Details: read-out: Pf DXR IC50; 37 °C, 144 μM DXP, 150 μM NADPH
row,Compound,pIC50
1,"CC(=O)N(O)CCCP(=O)(O)O [compound 2, FR-900098, reference compound]",7.66
2,"N.N.O=C(c1ccccc1)N(O)C/C=C/P(=O)(O)O [compound 11a, Diammonium [(1E)-3-(N-Hydroxy-1-phenylformamido)-prop-1-en-1-yl]phosphonate]",6.97

# From publication PMC10880585 (ACS infectious diseases, 2023)
